Reference: the supplement of paper PMC11417369
The other results are listed elsewhere or left out.

test system: PfSIP2 AP2 domain 1 (GST-tagged); test: gcPBM binding intensity (ln(normalized median fluorescence intensity)); higher = stronger DNA binding
Procedure, shortened: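 Binding intensity is defined as the maximum Masliner-normalised natural-log median intensity across replicate spots for either probe orientation. It was measured on an Agilent 4 × 180k array of primer-extended double-stranded 36-bp intergenic genomic probes and negative controls, to which GST-tagged P. falciparum DNA-binding domains made in E. coli were applied for 1 h in 1× PBS with 1% milk, 0.2 mg/ml BSA, 0.5% salmon testes DNA and 0.03% Triton X-100. Detection was by Alexa488 anti-GST antibody and scanning at 488 nm.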

Row | Sequence | gcPBM binding intensity (ln)
1 | AAAGAAGGTAAACACACACACACACCGACAAAAAAA [CACACA_site9255] | 7.02
2 | AAATTATCCAAAAATTGTACTTAAAACAACATAAAA [XGTACX_site6238] | 6.92
3 | ACCATTTGTAGGTAAACACACATTATTCTTAATATC [CACACA_site5453] | 7
4 | TTTCTCTTATTCCAATCTATAATAAGTATCAATATT [CACACA_negctrl_site179] | 6.91
5 | AATATTAAACAAATGAAAAAAAAATATATATTATAT [CACACA_negctrl_site742] | 6.97
6 | TATGTTTTTCGGTATGCATGCATATGCTTAATAATA [TGCATGCA_site184] | 7.13
7 | AAAATAACACAAATGGGTACATATTATATTAAATAA [XGTACX_site7027] | 6.86
8 | AATATATATATGATTATATATATATATATATATATA [GTGCAC_negctrl_site290] | 9.18
9 | TTTAATTAAAATATATGTACATATATATATATATAT [XGTACX_site4517] | 9.11
10 | GGAGAAAAAAAAAAAAAACACACGGTACATTCAAAG [CACACA_site1503] | 6.81
11 | TTTTTTTCGTATATTACACACTATATATAGAAATTA [CACACA_site298] | 7.05
12 | TTATTAAAGGAAAAATGTACATATAAATGAATATGT [XGTACX_site23] | 7.07
13 | AAAAAATGTAAATATAAACAACCAAAGGGGGTATAC [GTGCAC_negctrl_site465] | 6.99
14 | TACGTGAAGTTATATACACACATAAATATGTCTGTA [CACACA_site7463] | 6.68
15 | ATAATATTTTATGGTTGTACTTTTAGTTCTTTTTTT [XGTACX_site5756] | 6.77
16 | ATTAAATATATTTTGCGTACACAAAAAAATACGTTC [XGTACX_site3862] | 7.38
17 | TTAAAGTATAACTGTACATGCGAGTAAAAGAATGAC [TGCATGCA_site899] | 7.82
18 | GAAAAAAAACACATTGTGCACTTTTCCTTAAGTATA [GTGCAC_site9475] | 9.56
19 | AAAAAAAAAAAGCACACACACATATGCGTATATATA [CACACA_site954] | 7.05
20 | TTAAGAAACAAAGAAAGTACACAACATAATATAGAA [XGTACX_site477] | 7.26
21 | TTAATAATAAAAAGGAGTACACTAATATACTATAAA [XGTACX_site2346] | 7.25
22 | ATATAATATATATATAAACACACAAAAAAAATTATA [CACACA_site8434] | 7.05

Row | Sequence | gcPBM binding intensity (ln)
23 | AATAAAATCATCTATACACACAAAAAAAATAAGAAA [CACACA_site2101] | 6.8
24 | AATAACCACGGACACACACACATATATATATATATA [CACACA_site5873] | 9.39
25 | TACAACCTTATAATTAGTACTTAGTTATGCTGTAAA [XGTACX_site6052] | 6.68
26 | TTTATTTGTGCATATACACACTTAAATATGTTTATT [CACACA_site7772] | 7.65
27 | TTTAATTTTTTTTATAGTACATAAAAAATAAAAAAA [XGTACX_site5631] | 6.82
28 | ATTATAATACTTTGTATGCACTAATCAATTATTAAA | 8.25
29 | TTTGTTATGGTTTTCTCACACATATATATATATATA [CACACA_site4617] | 9.58
30 | ACATAAAATTGGAGCAAACACACAAGGTTGAAATTA [CACACA_site505] | 6.85
31 | CCGATATAATGGAAAACACACAAAAGATATTTATAT [CACACA_site7293] | 6.8
32 | CTGTAAAAAATATAAACACACATAGAAATATATAAA [CACACA_site340] | 6.98
33 | CCTCATAAGTTCTTATGTACGTATTGTTCACCTTTA [XGTACX_site6640] | 6.87
34 | GAATTATAAATTATAGTGCATAAAATTATGGCATAA [GTGCAC_site9938] | 8.52
35 | TCAAAACATTATTCCATACACACCATACTTTTTAAT [CACACA_site2770] | 7.14
36 | TTGAATTATAAGAATAAACACACAAGCTTAAAAAAA [CACACA_site8318] | 6.73
37 | TATTTAAATTTGTATAATGGACGAATTATATAGAAA [GTGCAC_negctrl_site650] | 7.03
38 | CCCACAGACGGACACACACACATATATATATATATA [CACACA_site4351] | 9.4
39 | TAAAAAATAAAATACACACACATATATATATATATA [CACACA_site1323] | 9.38
40 | GAGGGAAAAAATAATCGTACAAAGAAAAAAAAAAAT [XGTACX_site7361] | 6.98
41 | TATATTCTTTTTTTAACACACAAAAAAAATAAAATA [CACACA_site1898] | 7.16
42 | AAAAAAATTAAAGATTGTACTTGATTTTTCATTTTA [XGTACX_site6685] | 6.69
43 | AAAGAATTGTATAAAAGTACATATTTGTTTGTTTTA [XGTACX_site7380] | 6.85
44 | TTTTTTTCATAAATTAGGTAATGTCGCAGGGGGACA [TGCATGCA_negctrl_site556] | 7.96
